Reference: the supplement of paper PMC7826260
The list shows a part of the results. Cleavage of a single-stranded DNA pool by Rep nickase domains was read by sequencing for 1 h at 37 °C with 3 µM enzyme; only the middle of the 90-letter strands is printed. Values are log2 of uncut reads against the no-enzyme pool; strong cutting gives strongly negative numbers. There is no active / inactive call. Because reads are shares of a total, they shift together; where an enzyme cuts many sequences, the uncut ones exceed 0.

Legend:
Assay in all cases: uncleaved DNA left, log2 of reads against the no-enzyme library (log2 ratio); higher = less cleavage (more negative = more Rep cleavage of the k-mer); sequences stand for … in CTCGTCCG…ACCGGAGA
[1] = system: T1, Rep nickase domain of Muscovy duck circovirus
T1 sequence (Rep 1-111, printed without the tag): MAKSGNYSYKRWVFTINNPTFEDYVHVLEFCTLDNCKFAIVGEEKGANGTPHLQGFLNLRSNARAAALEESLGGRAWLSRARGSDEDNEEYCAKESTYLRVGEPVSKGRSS
Experimental: (§1)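 A pool of 90-nt single-stranded DNAs with seven random bases just before the constant AC of the nick site (name = the seven bases) was cut by 3 µM recombinant His6-SUMO-tagged Rep nickase domain (300 nM DNA, 50 mM HEPES pH 8.0, 50 mM NaCl, 1 mM MnCl2, 1 h, 37 °C, three replicates). Uncut DNA was amplified and sequenced.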

[2] = system: T2, Rep nickase domain of banana bunchy top virus
T2 sequence (Rep 1-94, printed without the tag): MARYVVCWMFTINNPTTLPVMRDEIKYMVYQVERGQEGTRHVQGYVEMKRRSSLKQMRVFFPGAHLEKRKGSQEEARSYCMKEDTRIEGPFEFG
Experimental: as §1

[3] = system: T3, Rep nickase domain of cabbage leaf curl virus
T3 sequence (Rep 1-116, printed without the tag): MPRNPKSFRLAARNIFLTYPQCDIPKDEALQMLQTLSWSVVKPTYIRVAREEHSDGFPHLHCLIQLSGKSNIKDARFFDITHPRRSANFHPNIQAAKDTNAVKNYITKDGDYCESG
Experimental: as §1

[4] = system: T4, Rep nickase domain of chickpea chlorotic dwarf virus
T4 sequence (Rep 1-124, printed without the tag): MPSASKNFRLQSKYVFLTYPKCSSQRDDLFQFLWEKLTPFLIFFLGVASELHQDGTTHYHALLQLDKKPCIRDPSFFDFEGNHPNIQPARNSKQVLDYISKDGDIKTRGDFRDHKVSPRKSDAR
Experimental: as §1

[5] = system: T5, Rep nickase domain of faba bean necrotic yellows virus
T5 sequence (Rep 1-98, printed without the tag): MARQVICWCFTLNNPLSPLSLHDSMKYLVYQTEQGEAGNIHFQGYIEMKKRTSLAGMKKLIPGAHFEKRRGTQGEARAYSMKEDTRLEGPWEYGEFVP
Experimental: as §1

[6] = system: T6, Rep nickase domain of maize striate mosaic virus
T6 sequence (Rep 1-117, printed without the tag): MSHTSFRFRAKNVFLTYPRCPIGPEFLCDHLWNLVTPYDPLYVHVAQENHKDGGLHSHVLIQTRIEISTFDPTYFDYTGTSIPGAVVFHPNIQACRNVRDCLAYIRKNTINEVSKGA
Experimental: as §1

[7] = system: T7, Rep nickase domain of porcine circovirus 2
T7 sequence (Rep 2-116, printed without the tag): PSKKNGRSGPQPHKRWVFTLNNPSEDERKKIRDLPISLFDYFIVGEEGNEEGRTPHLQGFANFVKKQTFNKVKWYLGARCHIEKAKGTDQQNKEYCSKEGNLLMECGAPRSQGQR
Experimental: as §1

[8] = system: T8, Rep nickase domain of tomato yellow leaf curl virus
T8 sequence (Rep 1-136, printed without the tag): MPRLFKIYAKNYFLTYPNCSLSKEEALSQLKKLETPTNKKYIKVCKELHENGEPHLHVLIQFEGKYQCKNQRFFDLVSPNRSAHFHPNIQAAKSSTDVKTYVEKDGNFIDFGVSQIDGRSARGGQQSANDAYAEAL
Experimental: as §1

[9] = system: T9, Rep nickase domain of wheat dwarf virus
T9 sequence (Rep 1-137, printed without the tag): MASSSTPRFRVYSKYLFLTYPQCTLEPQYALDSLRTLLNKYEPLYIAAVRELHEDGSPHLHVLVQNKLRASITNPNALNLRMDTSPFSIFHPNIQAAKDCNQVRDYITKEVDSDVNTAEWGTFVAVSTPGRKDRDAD
Experimental: as §1

Sequence | uncleaved DNA left (log2) [1] | uncleaved DNA left (log2) [2] | uncleaved DNA left (log2) [3] | uncleaved DNA left (log2) [4] | uncleaved DNA left (log2) [5] | uncleaved DNA left (log2) [6] | uncleaved DNA left (log2) [7] | uncleaved DNA left (log2) [8] | uncleaved DNA left (log2) [9]
CTGCGAG | -0.00271 | -0.112 | -0.524 | -0.213 | 0.0668 | -1.15 | 0.194 | -0.0976 | -0.15
GAGATTC | -0.00713 | 0.0205 | 0.423 | 1.09 | 0.0739 | 1.25 | -0.0321 | 0.00138 | 0.138
AAGGATA | 0.0487 | -0.0338 | 0.215 | 1.39 | -0.0358 | 1.5 | 0.0782 | -0.214 | 0.0145
CCTTACC | -0.189 | 0.0215 | -0.286 | -2.27 | -0.0351 | -0.613 | -0.914 | 0.0731 | 0.00727
CTCATCT | -0.00102 | 0.0177 | -0.11 | -2.21 | -0.0145 | -0.831 | -0.109 | 0.0941 | 0.0269
CTAAGGA | -0.0493 | -0.0763 | -0.0239 | 0.0674 | -0.0192 | -0.325 | 0.0937 | -0.076 | 0.0344
ACTGCAG | -0.189 | -0.202 | -0.896 | -0.278 | -0.0566 | -1.17 | 0.0138 | -0.0617 | -0.147
CATAGCG | 0.00897 | -0.101 | -0.688 | 0.378 | -0.086 | -0.444 | 0.0374 | 0.0459 | -0.146
AATGCTT | -0.181 | -0.345 | -0.106 | -1.54 | -0.103 | 0.495 | -0.853 | -0.108 | -0.0318
CCAGTGT | 0.0242 | -0.0874 | -0.347 | -0.61 | -0.0876 | -0.914 | -0.0549 | -0.112 | -0.183
AGAACCT | -0.0128 | 0.0174 | 0.694 | 1.46 | 0.0555 | 2 | -0.0616 | 0.0535 | 0.228
CTGAGAC | -0.133 | -0.124 | 0.288 | 0.663 | -0.0967 | 0.209 | -0.0226 | -0.154 | -0.0879
GCAGGCT | 0.00134 | -0.106 | -0.138 | -0.24 | -0.101 | -0.332 | -0.139 | -0.0956 | -0.163
CAGGTGC | -0.0493 | 0.0249 | -0.597 | -0.471 | 0.0708 | -0.934 | -0.0375 | -0.0503 | -0.0695
CCCGAGC | 0.15 | 0.0508 | 0.513 | 0.961 | 0.049 | 0.0829 | 0.176 | -0.0108 | 0.115
TAGGCAC | 0.0577 | 0.0337 | -0.0377 | 0.4 | -0.094 | 0.184 | -0.0397 | -0.00321 | 0.161
GTGTGCT | -0.226 | -0.145 | 0.0498 | 0.34 | -0.203 | 0.376 | -2.13 | -0.0763 | -0.209
AAATGTG | 0.1 | 0.0621 | -0.732 | 0.0067 | 0.146 | -0.966 | 0.202 | 0.156 | 0.0769
GGCGAAG | -0.0104 | 0.177 | 0.21 | 0.664 | -0.00348 | 1.26 | 0.146 | -0.0315 | 0.0985
CCCGGCT | -0.114 | -0.0271 | 0.0386 | -0.29 | 0.0483 | -0.472 | 0.153 | -0.0106 | 0.00683
ACGAAGA | -0.0446 | 0.0429 | -0.0622 | -0.0457 | 0.125 | -0.973 | 0.155 | -0.0928 | 0.0197
ATCAATC | 0.16 | 0.246 | 0.309 | 1.31 | 0.00335 | 0.876 | -0.0446 | 0.0956 | 0.287
ATGAATT | -0.214 | -0.413 | -0.273 | -2.17 | -0.238 | -0.439 | -2.62 | -0.113 | -0.137
AAAAACG | 0.0831 | 0.0946 | -0.797 | -0.0821 | 0.0863 | -0.924 | 0.202 | 0.0114 | 0.00397
ATGTTTT | -2.91 | -1.33 | -0.145 | -2.22 | -0.923 | -0.412 | -3.41 | -0.146 | -0.199
TATGTTC | 0.0824 | -0.00789 | 0.0456 | -1.94 | 0.0301 | -0.522 | -0.284 | 0.0389 | -0.0841
TTACGAC | 0.0829 | 0.00934 | 0.143 | -1.14 | 0.172 | -0.267 | 0.111 | -0.0453 | 0.0198
TGTGAAG | 0.0987 | 0.133 | -0.745 | -0.455 | 0.127 | -1 | 0.133 | 0.0138 | -0.0603
GGTATAC | 0.0972 | 0.0721 | 0.419 | 1.15 | -0.0819 | 1.85 | 0.183 | 0.175 | 0.13
GGGGCCG | -0.0527 | 0.0509 | 0.628 | 1.27 | 0.0149 | 1.48 | 0.171 | -0.0343 | -0.0121
